Experimental findings from ChEMBL document CHEMBL4888484, “Replenishing the malaria drug discovery pipeline: Screening and hit evaluation of the MMV Hit Generation Library 1 (HGL1) against asexual blood stage Plasmodium falciparum ,using a nano luciferase reporter read-out” (2022) are described below.

The whole screen tested about 150,000 compounds, of which about 540 (0.36%) showed an effect of 50% or more. Some of the results follow.

This assay concerns Plasmodium falciparum. As to the kind of experiment: Primary screen in NF54 nanoGlo assay, in single point, at 2uM, 72h; a lower Z score goes with more inhibition. Type of assay: functional, Erythrocyte. As to conditions: timepoint 72 hour.
As to `Cc1cccc(C(=O)N=C(N)Nc2nc3ccccc3s2)c1`, the “% Inhibition” value was -8% and the Z score is 0.72.
Turning to `CN(C)c1ccccc1NC(=O)Cc1cnn(-c2ccccc2)c1`, the “% Inhibition” value is -8% and the Z score came out at 0.69.
Take `O=C(CC1CC1)NC1CCC(F)(F)CC1`: the “% Inhibition” value is on record as -9% and the Z score was 1.45.
Turning to `Cc1nn(CCC(=O)N2C[C@@H]3CC[C@H]2CN(S(C)(=O)=O)C3)c(C)c1C`, the “% Inhibition” value is listed as -6% and the Z score is given as 1.09.
For `COc1ccc2cc1Oc1cccc(c1)CO[C@H]1CN(C(=O)c3cnn(C)c3)C[C@@H]1NC(=O)CN(C)C2`, the “% Inhibition” value is recorded as 4% and the Z score is -0.6.
`CC(C)CNC(=O)C1C(c2ccc(NC(=O)c3cccs3)cc2)OC(=O)N1Cc1ccc(F)cc1` (stereo unspecified): the “% Inhibition” value was determined as 9% and the Z score is -1.3.
On to `CC(C)n1ncc(C2(c3cnn(C(C)C)c3NC(=Nc3ccccc3)N(C)C)C(=O)Nc3ccccc32)c1NC(=Nc1ccccc1)N(C)C` (stereo unspecified), for which the “% Inhibition” value is reported as -5% and the Z score was 0.84.
`N#Cc1ccc(CN2C[C@@H]3C[C@H]2C(=O)NC[C@@H]2CCC[C@@H](CCOc4ccccc4C(=O)N3)O2)cc1`: the “% Inhibition” value is recorded as 28% and the Z score is -3.13.
As for `CCOC(=O)c1c(C)nc(C)c(C(=O)OCC)c1-c1ccccn1`, the “% Inhibition” value is -32% and the Z score turned out to be 3.72.
In the case of `CC(C)N1CCN(c2nc(-c3ccc(Cl)cc3)c3c(N)n(C)nc3n2)CC1`, the “% Inhibition” value is listed as -4% and the Z score came to 0.48.
As for `CC(C)n1ccnc1CNc1ccccc1-n1nccn1`, the “% Inhibition” value was -17% and the Z score is listed as 1.81.
As for `COC(=O)N1CC(NCc2c(C)nn(C(C)(C)C)c2C)C1`, the “% Inhibition” value is -9% and the Z score is 0.93.
The matching figures for `CN(Cc1nnnn1C)C(=O)C1(C)CC2CCC1O2` (stereo unspecified): 0% and -0.03.
On to `CCOC(=O)CCC(=O)Nc1cc(Cl)ccc1OC[C@H]1CCCO1`, for which the “% Inhibition” value worked out at 11% and the Z score was -1.8.
On the same counts, the results for `N#Cc1ccc(-c2nc(-c3ccc(S(=O)(=O)N4CCCCC4)cc3)no2)cc1` are 2% and -0.28.
For `O=C(O)C(CNC(=O)C1C2Cc3c(Cl)cccc3C21)CC1CC1` (stereo unspecified), the “% Inhibition” value is -9% and the Z score is 1.84.
For `Cn1cc(-c2cc(CN3C[C@H](F)C[C@H]3C(N)=O)on2)cn1`, the “% Inhibition” value was found to be 5% and the Z score was -0.67.
The matching figures for `O=C([C@H]1CC(=O)N(c2ccc(F)cc2)C1)N1CCCC1`: -4% and 0.4.
The matching figures for `Cc1noc(C)c1CNC(C)CC(O)c1ccc(F)cc1` (stereo unspecified): -4% and 0.56.
With `COC[C@H](C)NC(=O)Cn1ncc(=O)c2ccccc21`, the “% Inhibition” value is listed as 2% and the Z score is on record as -0.28.
Regarding `COc1cc(-c2cn(CCS(=O)(=O)N3CCCC3)nn2)cc2c1OCO2`, the “% Inhibition” value is recorded as 2% and the Z score is -0.37.
As for `C[C@H]1CN(c2cccc(Cl)c2)C(=O)CN1C(=O)c1ccc(Cl)cc1F`, the “% Inhibition” value was -17% and the Z score came to 3.42.
With `Cn1nc(C(=O)Nc2cccc3cccnc23)ccc1=O`, the “% Inhibition” value is reported as -16% and the Z score was 1.59.
For the compound `O=C(NCc1ccco1)c1cccc(S(=O)(=O)Nc2ccccc2-c2ccccc2)c1`, the “% Inhibition” value is given as -11% and the Z score was 1.62.
Take `COc1nnc(NC(=O)NCc2cc(Br)cnc2OC)s1`: the “% Inhibition” value was -2% and the Z score is reported as 0.29.
As to `OCCOCCNCc1ccccc1F`, the “% Inhibition” value is 5% and the Z score is given as -0.97.
For `Cc1cc(=O)[nH]c(CNc2cc(CC(C)C)ncn2)n1`, the “% Inhibition” value is -8% and the Z score came to 1.1.
For `C[C@H]1CN(Cc2ncccn2)CCC1(F)F`, the “% Inhibition” value is given as -10% and the Z score was determined as 1.27.
The matching figures for `N#CC1(C(=O)NCCC2=CCOCC2)CCCCC1`: -5% and 0.75.
Take `COc1ccc(C(=O)N2CCC3(CC2)N[C@@H](C)C(=O)N3C2CC2)cc1`: the “% Inhibition” value is reported as -6% and the Z score was found to be 0.69.
The matching figures for `Cc1[nH]c2ccc(NC(=O)c3ccccc3)cc2c1[C@H](Nc1ccccn1)c1ccccn1`: -5% and 0.82.
For the compound `COCCCNc1ccc(F)cc1S(=O)(=O)NC1CC(C)C1` (stereo unspecified), the “% Inhibition” value is listed as -6% and the Z score is reported as 1.09.
For `CCc1csc(CNC(=O)c2ccc(N(C)Cc3cnccn3)nc2)n1`, the “% Inhibition” value is on record as -6% and the Z score came to 1.15.
Turning to `C[C@@H](Cc1ccsc1)NC(=O)N1CCOCC1`, the “% Inhibition” value is -6% and the Z score turned out to be 0.61.
On the same counts, the results for `C[C@@H](c1ccc2c(c1)OCCO2)N(C)C(=O)NCCc1nc(C2CC2)no1` are -8% and 0.9.
Consider `CCN(CCC(=O)NCC(C)C)C(=O)c1cc(C)oc1C`, for which the “% Inhibition” value was found to be 7% and the Z score is -0.69.
For the compound `COc1ccc(Cl)cc1CNCc1cnccc1N(C)C`, the “% Inhibition” value was -3% and the Z score is on record as 0.5.
On the same counts, the results for `CC(C)c1noc(NC2CC3CCC2O3)n1` (stereo unspecified) are 17% and -1.98.
Turning to `CCc1nnc(-c2c(C)c(S(=O)(=O)Nc3ccc(OC)cc3)c(C)n2C)o1`, the “% Inhibition” value came to 4% and the Z score is -0.61.
For the compound `CC(C)[C@@]1(CO)CCCN(Cc2nnnn2C)C1`, the “% Inhibition” value is given as -4% and the Z score is recorded as 0.59.
In the case of `NC(=O)NC(CC(=O)NCC1CC2c3ccccc3C1c1ccccc12)c1ccccc1Cl` (stereo unspecified), the “% Inhibition” value is reported as -5% and the Z score turned out to be 0.6.
On the same counts, the results for `Cn1cnnc1C1CCCN(S(=O)(=O)[C@H]2C[C@@H]2c2ccccc2)C1` (stereo partly specified) are -6% and 1.22.
Take `CC1CCC(NC(=O)NCCCn2ccnn2)C(C)C1` (stereo unspecified): the “% Inhibition” value was -6% and the Z score came to 0.66.

As a reminder, the % Inhibition is the change of the read-out against control, counted positive when it falls.
